Data reported in PubChem BioAssay AID493208 (National Center for Advancing Translational Sciences (NCATS), 2011).
The campaign covered roughly 44,000 compounds. About 340 (0.77%) were called active. Another 5% or so got no clear call; they are omitted. Calls follow the shape of the dose curve; as a rule, active = well fitted inhibition curve with a large enough effect; inconclusive = small, poorly fitted or top-dose-only effect; inactive = flat fitted curve, though single readings scatter. The list shows a part of the results.

Assay: Acumen qHTS Assay for Inhibitors of the mTORC1 Signaling Pathway in MEF (Tsc2-/-, p53-/-) Cells: Sytravon;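 also: plate controls were DMSO for no effect and rapamycin for full effect; nearly all actives have a fitted effect of over 50% in size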
Conditions: phospho-rpS6 immunofluorescence/PI, 24 h; series mostly up to 38.3 µM; activity change, negative = inhibition: at the top concentration
How it was run: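 Compounds act on Tsc2-/-, p53-/- fibroblasts carrying an empty vector for 24 h before fixation and dual staining for phospho-S6 and DNA (propidium iodide). Values are percentages of cells above a rapamycin-defined pS6/PI threshold.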

Row | SMILES | activity change, negative = inhibition
1 | CCc1ccc(NC(=O)CN2C(=O)CSc3ccc(S(=O)(=O)N(C)C)cc32)cc1 | inactive: -1%
2 | O=C(NCc1ccccc1)c1ccc2c(c1)CCN2S(=O)(=O)c1ccc(Cl)cc1 | inactive: -3.69%
3 | COc1ccc2cc3c(N)nn(C(=O)c4ccccc4Cl)c3nc2c1 | inactive: -14.5%
4 | COc1ccc(-c2noc(CN(C(=O)C(C)Oc3ccc(C)cc3)C(C)C)n2)cc1 (configuration not stated) | inactive: -1.09%
5 | CCn1cc(C(=O)NCCc2ccc(OC)c(OC)c2)c(=O)c2cc(S(=O)(=O)N(C)C3CCCCC3)ccc21 | inactive: 1.77%
6 | CCOc1ccc(NC(=O)N2CCN(c3ccc(Cl)c(Cl)c3)CC2)cc1 | inactive: 0%
7 | CCc1ccc(NCc2cc3ccc(OC)cc3n(CC(=O)Nc3c(C)cc(C)cc3C)c2=O)cc1 | inactive: -1.74%
8 | CC(C)Oc1ccc(C(=O)N(Cc2ccc(N(C)C)cc2)C2CCS(=O)(=O)C2)cc1 (configuration not stated) | inactive: 3.45%
9 | Cc1ccccc1CNC(=O)CCS(=O)(=O)c1cc2c3c(c1)CCN3C(=O)CC2 | inactive: 6.22%
10 | CCOc1cccc(CNC(=O)c2ccc(N3CCCC3)c(NC(=O)NCc3ccccc3)c2)c1 | inactive: 14.1%
11 | COc1ccc(Cl)cc1NC(=O)Cn1ccn(-c2cc(C)cc(C)c2)c(=O)c1=O | inactive: 11.2%
12 | Cn1nnc2c(N3CCN(c4ccc(F)cc4)CC3)ncnc21 | inactive: 1.48%
13 | Cc1ccc(N2CCN(C(=O)c3cc4cc5ccc(C)cc5nc4s3)CC2C)cc1 (configuration not stated) | inactive: 5.4%
14 | Fc1ccc(-n2ncc3c(Nc4ccc5c(c4)OCCO5)ncnc32)cc1 | inactive: 8.93%
15 | Cc1ccc(Nc2sc(C(=O)c3ccccc3)c(N)c2S(=O)(=O)c2ccccc2)cc1Cl | inactive: -3.61%
16 | COc1ccccc1N1CCN(C(=O)CCS(=O)(=O)c2ccc3c(c2)oc(=O)n3C)CC1 | inactive: -4.93%
17 | COc1ccc(-c2noc(CSc3nnc(C)n3-c3cccc(C)c3)n2)cc1 | inactive: -7.3%
18 | COc1cc(C(=O)NCCc2csc(-c3ccc(Cl)cc3)n2)cc(OC)c1OC | inactive: 0.921%
19 | COc1ccc(O)c(C2=Nc3ccccc3N=C(c3ccccc3)C2)c1 | inactive: 7.96%
20 | CNC(=O)c1ccc2c(c1)N(Cc1cc(C)ccc1C)C(=O)c1ccccc1S2 | inactive: -5.77%
21 | COc1ccc(CNC(=O)c2ccc(-c3nc(CSc4ccc(C)cc4)c(C)o3)cc2)c(OC)c1 | inactive: -0.0106%
22 | Cc1cccc(CCNC(=O)c2cc3c(s2)-c2c(C)cccc2OC3)c1 | inactive: -2.99%
23 | CCCN1CCN(C(=O)Cn2c(-c3cccs3)cc3cc(F)ccc32)CC1 | inactive: -1.61%
24 | Cc1ccc2c(c1)N(C(=O)Nc1cccc3c1CCCC3)CCO2 | inactive: 0.351%

Row | SMILES | activity change, negative = inhibition
25 | O=C(NCCc1ccccc1)c1ccc(Nc2nc3ccccc3n3nnnc23)cc1 | inactive: -1.92%
26 | COc1ccc(C2c3c(n(C)c4ccccc34)C(=O)N2CC(=O)Nc2cccc(Cl)c2)cc1 (configuration not stated) | inactive: -1.02%
27 | CCOC(=O)c1c(NC(=O)CSc2cn(CCNC(=O)c3ccc(OC)cc3)c3ccccc23)sc2c1CCCC2 | inactive: -3.31%
28 | CCc1ccc2oc(C(=O)Nc3nc(-c4ccc(F)cc4)ns3)c(C)c2c1 | inactive: 2.33%
29 | CCOC(=O)c1cccc(NC(=O)CC2C(=O)N(c3ccccc3)C(=O)N2Cc2ccco2)c1 (configuration not stated) | inactive: 0.647%
30 | COc1ccc(-c2cc(C(F)(F)F)n3nc(C(=O)OC(C)C)cc3n2)cc1 | inactive: -1.3%
31 | Cc1cc2c(n1-c1ccc(C(=O)NCCc3ccc(Cl)cc3)cc1)CCC(C)C2 (configuration not stated) | inactive: 0.912%
32 | Cc1c(C2=CCN(S(=O)(=O)c3ccc(Cl)cc3)CC2)c2ccccc2n1CC(=O)N1CCCC1 | inactive: 5.17%
33 | CCOc1ccccc1CNC(=O)C1CCN(c2nnc(C)c3c(C)n(-c4ccc(C)cc4)nc23)CC1 | inactive: -12.7%
34 | O=C(CC1(O)C(=O)N(CCc2ccccc2)c2ccc(Br)cc21)c1ccccc1 (configuration not stated) | inactive: -2.55%
35 | COc1ccc(N(Cc2nnc3n2CCCCC3)C(=O)Nc2ccc(Cl)cc2)cc1Cl | inactive: -3.61%
36 | Cc1cccc(OCC(=O)Nc2ccc(OCc3cc(=O)n4cc(C)ccc4n3)cc2)c1 | inactive: -2.15%
37 | Cc1c(Cl)cccc1NC(=O)C(C)n1nc(C)c2c(C)n(-c3ccccc3)nc2c1=O (configuration not stated) | inactive: -5.16%
38 | CC(=O)Nc1ccc(Nc2nc3ccc(Cl)cc3n3cnnc23)cc1 | inactive: 0.685%
39 | CNC(=O)c1ccc(-c2nc(CN3CCc4ccccc43)c(C)o2)cc1 | inactive: -12.8%
40 | O=C1CC(c2nnc(Cc3ccc(F)cc3)o2)CN1c1ccccc1 (configuration not stated) | inactive: 0.236%
41 | Cc1cccc(NC(=O)CSc2cn(CC(=O)N3CCC(C)CC3)c3ccccc23)c1C | inactive: -10.8%
42 | Fc1ccccc1-n1ncc2c1ncn1nc(COc3ccc(Cl)cc3)nc21 | inactive: 1.96%
43 | COc1ccccc1CNC(=O)c1cc(S(=O)(=O)N2CCCCCC2)cn1C | inactive: -23.1%
44 | CC(=O)c1cccc(NC(=O)Cn2c(-c3cncs3)nc3ccccc32)c1 | inactive: -3.54%
45 | Cc1cccc(N2CCN(S(=O)(=O)c3nnc(NC(=O)c4ccc(Cl)cc4)s3)CC2)c1 | inactive: 2.21%
46 | COc1ccc(OC)c(NC(=O)c2ccc3nc(C(C)C)oc3c2)c1 | inactive: 5.07%
47 | CC(C)(C)C(=O)NC1CC(=O)N(c2ccc3c(c2)OCCO3)C1 (configuration not stated) | inactive: -0.0925%
